Data on 57 compounds can be found in article PMC4336329 (PLoS ONE, 2015).

Among all 310,000 compounds or so, about 14,000 (4.5%) showed an effect of 50% or more. Effects have a minus sign here. This is one part of the list.
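Note: peak tail current of the secondary pulse compared with the same well before compound.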

The target in the assay is human ether-à-go-go-related gene (hERG) potassium channel (human, UniProt Q12809). Nature of the assay: primary screen, population patch clamp on CHO cells stably expressing hERG.
Sequence of human ether-à-go-go-related gene (hERG) potassium channel (Q12809 whole entry, looked up): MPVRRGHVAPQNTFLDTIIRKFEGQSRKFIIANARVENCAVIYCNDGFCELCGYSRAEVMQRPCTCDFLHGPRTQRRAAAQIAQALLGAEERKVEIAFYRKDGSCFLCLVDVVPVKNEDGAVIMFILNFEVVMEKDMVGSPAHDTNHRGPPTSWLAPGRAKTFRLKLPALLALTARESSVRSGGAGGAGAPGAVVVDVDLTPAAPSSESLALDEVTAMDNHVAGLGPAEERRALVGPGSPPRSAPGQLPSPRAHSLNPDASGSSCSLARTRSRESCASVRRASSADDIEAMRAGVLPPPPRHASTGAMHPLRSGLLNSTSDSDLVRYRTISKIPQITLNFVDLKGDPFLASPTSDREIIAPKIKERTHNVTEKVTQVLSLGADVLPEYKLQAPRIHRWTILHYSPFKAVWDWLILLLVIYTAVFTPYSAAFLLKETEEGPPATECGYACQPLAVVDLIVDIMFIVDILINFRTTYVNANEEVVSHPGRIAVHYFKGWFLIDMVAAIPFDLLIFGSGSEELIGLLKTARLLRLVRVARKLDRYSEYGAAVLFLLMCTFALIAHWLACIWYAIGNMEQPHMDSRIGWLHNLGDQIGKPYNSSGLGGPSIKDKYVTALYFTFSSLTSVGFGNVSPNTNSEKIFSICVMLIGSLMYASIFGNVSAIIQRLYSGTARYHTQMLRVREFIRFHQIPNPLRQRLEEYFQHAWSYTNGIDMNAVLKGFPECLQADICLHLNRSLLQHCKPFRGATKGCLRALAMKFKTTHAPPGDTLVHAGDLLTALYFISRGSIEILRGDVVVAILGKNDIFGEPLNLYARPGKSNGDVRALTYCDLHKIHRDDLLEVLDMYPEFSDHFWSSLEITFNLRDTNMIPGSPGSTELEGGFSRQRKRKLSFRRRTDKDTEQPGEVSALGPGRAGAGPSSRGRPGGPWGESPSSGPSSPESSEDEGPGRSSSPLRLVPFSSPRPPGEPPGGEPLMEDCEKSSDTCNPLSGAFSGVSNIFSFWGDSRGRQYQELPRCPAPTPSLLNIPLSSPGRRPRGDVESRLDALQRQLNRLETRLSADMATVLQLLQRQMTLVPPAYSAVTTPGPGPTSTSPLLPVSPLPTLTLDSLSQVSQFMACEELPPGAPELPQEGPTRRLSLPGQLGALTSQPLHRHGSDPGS
Take `O=C(CNS(=O)(=O)c1ccccc1)OCC(=O)c1ccc(F)cc1`: the “hERG current change (%, negative = inhibition) at 10uM” value was determined as 10.9%. Consider `CCOC(=O)C1CCCN(Cc2sccc2C)C1` (stereo not drawn), for which the “hERG current change (%, negative = inhibition) at 10uM” value is listed as -16.7%. In the case of `O=c1cc(-c2ccco2)nc(SCc2cccc(Cl)c2)[nH]1`, the “hERG current change (%, negative = inhibition) at 10uM” value is recorded as 22.4%. Regarding `O=C(CN1C(=O)CC(c2ccco2)Sc2ccccc21)Nc1ccc2c(c1)OCCO2` (stereo not drawn), the “hERG current change (%, negative = inhibition) at 10uM” value is -6.73%. Turning to `COc1ccc(S(=O)(=O)NCCSCc2cccc(C)c2)cc1Br`, the “hERG current change (%, negative = inhibition) at 10uM” value is listed as -0.641%. On to `Cc1ccc(C)c(S(=O)(=O)N2CCN(C(=O)C(C)Sc3ccccc3)CC2)c1` (stereo not drawn), for which the “hERG current change (%, negative = inhibition) at 10uM” value is -10.4%.

As for `Cc1ncc(CO)c(/C=N/NC(=S)Nc2ccc(Cl)c(Cl)c2)c1O`, the “hERG current change (%, negative = inhibition) at 10uM” value is listed as 11.9%.

`Cc1nn(-c2ccc(N3CCCCC3)nn2)c(C)c1CCC(=O)Nc1ccccc1F`: the “hERG current change (%, negative = inhibition) at 10uM” value worked out at 1.88%.

For `COCCCNCCOc1cc(C(C)C)ccc1C`, the “hERG current change (%, negative = inhibition) at 10uM” value is reported as -14.1%.

Regarding `COC(c1ccccc1)c1nnc(CCC(=O)N(C)CCCC2CCCC2)o1` (stereo not drawn), the “hERG current change (%, negative = inhibition) at 10uM” value is -2.44%. Then `Cc1ccccc1C(=O)Nc1nnc(S(=O)(=O)N2CCCCC2)s1`, with 3.83%. Then `COc1ccccc1CC(=O)Nc1cccc(S(=O)(=O)N2CCOCC2)c1`, with 4.54%; and `COC(=O)c1cc2c(C)c(C)c3ccccn3c-2c1C(=O)OC`, with 16%; and `O=C(Cn1nnc(-c2ccccc2)n1)N1CCCCC1`, with 15%. With `COc1ccc(S(=O)(=O)N/N=C\c2ccc3c(c2)OCO3)c(OC)c1`, the “hERG current change (%, negative = inhibition) at 10uM” value is 8.48%. Consider `Cc1onc(-c2c(F)cccc2Cl)c1C(=O)Nc1nnc(C2CC2)s1`, for which the “hERG current change (%, negative = inhibition) at 10uM” value is recorded as 3.74%. As for `COc1cccc(C2=NOC(C(=O)NCc3ccc(F)cc3)C2)c1` (stereo not drawn), the “hERG current change (%, negative = inhibition) at 10uM” value is -16.2%. In the case of `CCc1ccc(C2NC(=O)c3ccccc3O2)cc1` (stereo not drawn), the “hERG current change (%, negative = inhibition) at 10uM” value is 1.84%. Then `Cc1ccc(C)c(-n2c(SCC(=O)NCC3CCCO3)nnc2-c2ccoc2C)c1` (stereo not drawn), with 6.82%. With `CCOC(=O)COc1c(Cl)cc(C2NC(=S)NC(c3ccccc3)=C2C(C)=O)cc1OC` (stereo not drawn) the figure was -18.9%; with `Fc1ccc(NC(=S)Nc2cccc3ccccc23)cc1F`, 8.71%. With `C1CCc2c(nc3nnnn3c2NC2CCCC2)C1` the figure was 0.307%. Turning to `Cc1sc2nc(SCC(=O)N(C)c3ccccc3)n(C)c(=O)c2c1C`, the “hERG current change (%, negative = inhibition) at 10uM” value is listed as -8.65%. Then `CC12CCC(C(=O)N(NC(=O)c3ccccc3Cl)C1=O)C2(C)C` (stereo not drawn), with 10.5%; and `CCN(CCO)Cc1cn[nH]c1-c1ccc(C)c(C)c1`, with 9.28%; and `CCC(=O)N1N=C(c2cccs2)CC1c1ccc(OC)cc1` (stereo not drawn), with 15.9%. With `Fc1ccc(-c2nc3ccccc3c3nc4ccccc4n23)cc1` the figure was 4.01%.

On to `CC(=O)Nc1cccc(-c2nc3ccccc3s2)c1C`, for which the “hERG current change (%, negative = inhibition) at 10uM” value is on record as -0.0879%. As for `Cc1ccc(S(=O)(=O)NC(CN2CCOCC2)=NCCNS(=O)(=O)c2ccccc2)cc1`, the “hERG current change (%, negative = inhibition) at 10uM” value is reported as -0.0753%. Then `Cc1ccc(NC(=O)CNC(=O)c2cccs2)c(O)c1`, with 15.1%; and `Cc1ccccc1C(=O)N1CCC(C(=O)N(C)CC(=O)Nc2cccc(F)c2)CC1`, with 12.4%; and `CCN(CC)P(=O)(c1n(CC)cc[n+]1CC)N(CC)CC.[I-]`, with 15.1%.

On to `O=C(NCCCN1CCOCC1)c1ccccc1NS(=O)(=O)c1ccc(F)cc1`, for which the “hERG current change (%, negative = inhibition) at 10uM” value is listed as -41.5%. For `NC(=O)COC(=O)c1cccc(S(=O)(=O)N2CCCCC2)c1`, the “hERG current change (%, negative = inhibition) at 10uM” value turned out to be 7.71%.

`COC(=O)c1sc(-c2ccccc2)cc1NC(=O)c1cc(OC)cc(OC)c1`: the “hERG current change (%, negative = inhibition) at 10uM” value came out at 14%. Then `O=C(CCn1c(=S)[nH]c2ccccc2c1=O)N1CCCCC1`, with 1.66%.

Take `Cc1ccc(S(=O)(=O)N2CCCCC2CCNC(=O)C(=O)NC2CCCC2)cc1` (stereo not drawn): the “hERG current change (%, negative = inhibition) at 10uM” value was -37.5%.

As to `CC(=O)c1c(N2CCN(c3ccccn3)CC2)nc(=S)n(-c2ccccc2)c1C`, the “hERG current change (%, negative = inhibition) at 10uM” value was -32.3%. As for `O=C(Cn1cnc2sc3c(c2c1=O)CCCC3)NCC(=O)Nc1ccccc1F`, the “hERG current change (%, negative = inhibition) at 10uM” value is given as 15.2%. For `COC(=O)CN(c1ccc(OC)cc1OC)S(=O)(=O)c1ccccc1[N+](=O)[O-]`, the “hERG current change (%, negative = inhibition) at 10uM” value was -13.5%. With `CCOC(=O)c1cc2c(ccn2C)n1Cc1ccc(C#N)cc1` the figure was -34.2%. With `O=C(Cc1ncc(C(F)(F)F)cc1Cl)N1CCN(c2ccccn2)CC1` the figure was -17.2%; with `O=C1C2C(C(=O)N1CCc1ccccc1)C1C=CC2C12CC2` (stereo not drawn), 4.41%. Regarding `COc1cc(/C=N/NC(=O)C(Cc2c[nH]c3ccccc23)NC(=O)OCC(C)C)cc([N+](=O)[O-])c1OCc1ccccc1` (stereo not drawn), the “hERG current change (%, negative = inhibition) at 10uM” value was determined as 6.01%. In the case of `Cc1cc(Cl)ccc1C(=O)C1CCCN(C(=O)c2snnc2C)C1` (stereo not drawn), the “hERG current change (%, negative = inhibition) at 10uM” value was -56.1%. In the case of `COc1ccc(NC(=S)NC2CC3CCCC(C2)N3C2CC2)cc1` (stereo not drawn), the “hERG current change (%, negative = inhibition) at 10uM” value was -41.3%. Then `O=C(CCNC(=O)N1CC(=O)Nc2ccccc21)NCc1cccc(Cl)c1`, with -2.37%. With `Cc1nc(-c2ccccc2)sc1C(=O)O` the figure was 7.03%; with `Cc1ccnc(NC(=O)CNC(=O)c2sc3ccccc3c2Cl)c1`, 0.658%; with `O=c1oc2cc(OCc3c(F)cccc3Cl)ccc2cc1-c1ccccn1`, -1.01%. For `CCOC(=O)c1cc(OC(=O)c2ccccc2)n(-c2ccccc2)n1`, the “hERG current change (%, negative = inhibition) at 10uM” value is -5.36%. Regarding `CC(c1ccccc1)n1c(-c2ccc(Cl)cc2)n[nH]c1=S` (stereo not drawn), the “hERG current change (%, negative = inhibition) at 10uM” value is 13.9%. `CCOC(=O)Nc1ccc2c(c1)N(C(=O)OCCN(C)C)c1ccccc1CC2`: the “hERG current change (%, negative = inhibition) at 10uM” value is recorded as -38.9%. Then `CCOc1cc(/C=N/n2cnnc2)c(Br)cc1O`, with -7.49%; and `CCOC(=O)C(C)Sc1ncnc2c1c(-c1ccccc1)cn2-c1ccc(OC)cc1` (stereo not drawn), with 6.91%. For the compound `Cc1nc(C)c(C(=O)NNS(=O)(=O)c2ccc3ccccc3c2)s1`, the “hERG current change (%, negative = inhibition) at 10uM” value is given as -3.21%. As for `O=C(Nc1ccc(O)cc1)/C(=C\C=C\c1ccccc1)NC(=O)c1ccccc1`, the “hERG current change (%, negative = inhibition) at 10uM” value is -7.34%.
